# In PubChem BioAssay (Tox21):
# Where “and” joins values, the source holds several entries; their conditions need not be identical. Identical values can stand only once. Inconclusive results, whose numbers are uncertain, are shown with a selection of clear calls. Where the call is inconclusive, the potency comes from a doubtful curve fit. Calls of active or inactive are those of the source. The call rests on the fitted dose curve; in most records, active means well fitted activation curve with a large enough effect in the repeat runs; inconclusive means weak or mixed curves, or effect the other way; inactive means no such curve, though single readings can be large or run the other way.
# Assay: qHTS assay to identify small molecule agonists of the retinoic acid receptor (RAR) signaling pathway (AID 1159553)
# Conditions: C3RL4 RARE luciferase reporter, agonist, 6 h; series mostly up to 73.3 µM
# Summary of the method: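 Agonist activity was scored in C3RL4 cells bearing a retinoic acid response element luciferase construct. Cells were treated with compounds for 6 hr at 37 C, and luciferase signal was measured as luminescence.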
# Potency means the concentration at half of the fitted maximal effect; tags describe the fitted curve by direction and shape.
row,SMILES,Potency
1,CCCCCCCCCCCCOC(=O)c1cc(O)c(O)c(O)c1,active: 172 nM and active: 386 nM
2,CC1=C(/C=C/C(C)=C/C=C/C(C)=C\C(=O)O)C(C)(C)CCC1,active: 0.0194 µM
3,CCCCCCCCCCCCc1ccc(O)cc1,"inconclusive: 30.6 µM [inhibitor, partial curve]"
4,Cc1cc(F)ccc1-c1cc(N2CC[C@@H](O)[C@H]2CO)ncc1N(C)C(=O)C(C)(C)c1cc(C(F)(F)F)cc(C(F)(F)F)c1,"inconclusive: 53.6 µM [inhibitor, partial curve]"
5,CCC(C)OC(=O)c1ccc(O)cc1 (stereo not given),"inconclusive: 21.8 µM [activator, partial curve] and active: 61.1 µM"
6,C[C@]12C=CC(=O)C=C1CC[C@@H]1[C@@H]2[C@@H](O)C[C@@]2(C)[C@H]1CC[C@]2(O)C(=O)CO,inactive
7,C[C@]12CC[C@@H]3c4ccc(O)cc4CC[C@H]3[C@@H]1CC[C@@H]2OC(=O)CCC1CCCC1,inconclusive: 48.6 µM [inhibitor] and inconclusive: 29.8 µM [inhibitor]
8,CCc1cc(Cc2cc(CC)c(N)c(CC)c2)cc(CC)c1N,"inconclusive: 68.6 µM [inhibitor, single point]"
9,CCC(C)(C)c1ccc(CC(C)CN2C[C@@H](C)O[C@@H](C)C2)cc1 (stereo not given in full),"inconclusive: 29.8 µM [inhibitor, partial curve, poor fit]"
10,c1ccc2c(c1)-c1cccc3c1c-2cc1ccccc13,"inconclusive: 5.32 µM [activator, full curve, poor fit] and inconclusive: 5.45 µM [activator, full curve, poor fit]"
